Whole data set: some 81,000 sequences, median “one-hybrid fitness for binding parS DNA” near -0.17, cut for the highest 2% near 0.51. This is one part of the list.
B1: Caulobacter ParB omega fusion; a variant is named by its letters at X, in order, B8GW30 (parent)
chain: MESVVVGEPGMSEGRRGLGRGLSALLGEVDAAPAQAPGEQLGGSREAPIEILQRNPDQPRRTFREEDLEDLSNSIREKGVLQPILVRPSPDTAGEYQIVAGERAWRAAQRAGLKTVPIMVRELDDLAVLEIGIIENVQRADLNVLEEALSYKVLMEKFERTQENIAQTIGKSXSHVANXMRLLXLPDEVQSYLVSGELTAXHARAIAAAADPVALAKQIIEGGLSVRETEALARKAPNLSAGKSKGGRPPRVKDTDTQALESDLSSVLGLDVSIDHRGSTGTLTITYATLEQLDDLCNRLTRGI

Variants of: B1
Assay: one-hybrid fitness for binding parS DNA (scaled: cognate 1, non-cognate 0); higher = stronger binding
Details: with parS DNA site
Procedure, shortened: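 The reporter was HIS3, with the binding site 19 bp from the promoter, in E. coli USO used for bacterial one-hybrid selection of Caulobacter ParB libraries with four specificity codons randomised. Growth was on M9 lacking histidine, with 0.1 mM IPTG and 5 mM 3-AT, for 48 hours at 37°C. Illumina sequencing covered plasmids before and after selection; three replicate libraries were pooled and variants with under 10 reads dropped. A fitness score is the log change in variant-to-wild-type read ratio, rescaled to the cognate and non-cognate references.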

Variant | one-hybrid fitness for binding parS DNA
EIAT | ≤ 0.2
TIHC | ≤ 0.2
QQQD | ≤ 0.2
AAGT | ≤ 0.2
SIDS | ≤ 0.2
IRLC | ≤ 0.2
MKVS | ≤ 0.2
VMIT | ≤ 0.2
IEVY | ≤ 0.2
NQKF | ≤ 0.2
CVQC | ≤ 0.2
DREL | ≤ 0.2
YCGC | ≤ 0.2
WYCR | ≤ 0.2
GSWS | ≤ 0.2
GQRV | ≤ 0.2
GMQP | ≤ 0.2
FTIK | ≤ 0.2
NEAV | ≤ 0.2
LTMT | ≤ 0.2
GLHG | ≤ 0.2
RCFL | ≤ 0.2
MVIL | ≤ 0.2
QAGR | ≤ 0.2
AEQL | ≤ 0.2
VSEG | ≤ 0.2

Variant | one-hybrid fitness for binding parS DNA
LWYM | ≤ 0.2
IPLR | ≤ 0.2
HFPC | ≤ 0.2
HDNR | ≤ 0.2
RDDI | ≤ 0.2
TSLI | ≤ 0.2
PRPV | ≤ 0.2
LHDC | ≤ 0.2
VLQC | ≤ 0.2
KLAY | ≤ 0.2
FYHF | ≤ 0.2
NLNT | ≤ 0.2
SSLF | ≤ 0.2
KHSR | ≤ 0.2
QYAF | ≤ 0.2
SVWT | ≤ 0.2
TSQR | ≤ 0.2
KNKH | ≤ 0.2
RYYV | ≤ 0.2
YCTG | ≤ 0.2
RIWQ | ≤ 0.2
ARIK | ≤ 0.2
SPPN | ≤ 0.2
YHDT | ≤ 0.2
VRAI | ≤ 0.2
NLRT | ≤ 0.2

Variant | one-hybrid fitness for binding parS DNA
DRDE | ≤ 0.2
SNLK | ≤ 0.2
MIDE | ≤ 0.2
ALEL | ≤ 0.2
WALT | ≤ 0.2
GAKR | ≤ 0.2
QLGN | ≤ 0.2
VWKS | ≤ 0.2
ALSC | ≤ 0.2
SMKM | ≤ 0.2
KRPE | ≤ 0.2
VGQF | ≤ 0.2
NAAV | ≤ 0.2
HPQG | ≤ 0.2
RIHM | 0.331
IVVT | ≤ 0.2
YWTS | ≤ 0.2
PPII | ≤ 0.2
FSHS | ≤ 0.2
KCIT | ≤ 0.2
LTWF | ≤ 0.2
KNSM | ≤ 0.2
YRPK | ≤ 0.2
QRVQ | ≤ 0.2
DNNS | ≤ 0.2
PKGI | ≤ 0.2

Variant | one-hybrid fitness for binding parS DNA
HSIG | ≤ 0.2
FTPF | ≤ 0.2
EATT | ≤ 0.2
ETRL | ≤ 0.2
LYPS | ≤ 0.2
WRGS | ≤ 0.2
RRTM | 0.351
LHTG | ≤ 0.2
ILKT | ≤ 0.2
GQLN | ≤ 0.2
RWES | 0.712
MMIG | ≤ 0.2
QGEI | ≤ 0.2
QTGM | ≤ 0.2
WTSE | ≤ 0.2
ECTT | ≤ 0.2
GRPW | ≤ 0.2
CPKF | ≤ 0.2
VPMV | ≤ 0.2
LSYF | ≤ 0.2
CRPP | ≤ 0.2
QPIK | ≤ 0.2
QGFL | ≤ 0.2
RNTN | 0.357
HKPA | ≤ 0.2
CGKE | ≤ 0.2

Variant | one-hybrid fitness for binding parS DNA
SVKN | ≤ 0.2
MRHP | ≤ 0.2
FARV | ≤ 0.2
RWLT | 0.556
TTLL | ≤ 0.2
IGPR | ≤ 0.2
HICD | ≤ 0.2
QIVL | ≤ 0.2
IKTQ | ≤ 0.2
TEGW | ≤ 0.2
IRMV | ≤ 0.2
SLGR | ≤ 0.2
SLKG | ≤ 0.2
HPPT | ≤ 0.2
KQHT | ≤ 0.2
SCQS | ≤ 0.2
IACS | ≤ 0.2
SDRS | ≤ 0.2
CCET | ≤ 0.2
NGME | ≤ 0.2
FPHL | ≤ 0.2
KKLG | ≤ 0.2
TQTE | ≤ 0.2
IHKT | ≤ 0.2
GRYW | ≤ 0.2
RKWM | 0.254

Variant | one-hybrid fitness for binding parS DNA
HMHL | ≤ 0.2
QCTH | ≤ 0.2
ITLI | ≤ 0.2
ISRA | ≤ 0.2
LCME | ≤ 0.2
KTMW | ≤ 0.2
EETT | ≤ 0.2
SALK | ≤ 0.2
DSSA | ≤ 0.2
IFQR | ≤ 0.2
QYFY | ≤ 0.2
IAGR | ≤ 0.2
TALA | ≤ 0.2
QLFQ | ≤ 0.2
CSPC | ≤ 0.2
PNKG | ≤ 0.2
SEKR | ≤ 0.2
FPAA | ≤ 0.2
LWLL | ≤ 0.2
YHMC | ≤ 0.2
HETL | ≤ 0.2
KVYR | ≤ 0.2
AKTP | ≤ 0.2
